# Reference: the supplement of paper PMC10369915
# Some of the results follow. Rule as the data show it: active = 3.2 or more and inactive = the rest. Most of these values are background signal.
# Target: SHP2 C-SH2 domain E139D
# Test: enrichment score (SH2-bound / input frequency) (ratio); bacterial display of known human phosphotyrosine sites (pTyr-Var adds point mutants) read by sequencing; higher = stronger binding; tyrosines were phosphorylated by kinases first
# Conditions: peptide library: pTyr-Var
# 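Also: displayed peptides selected on beads carrying the immobilized SH2 domain, with library peptides lacking any tyrosine serving as negative controls.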
row,Binder,enrichment score
1,FRDALYKFIVD [PHEX_Y250_M253I_YF],inactive: 2.39
2,PMQLPHDSTWE [PDGFRB_Y589_Y589H],inactive: 1.14
3,LQTYRYHGLSM [PDHA1_Y289_H292L],inactive: 0.855
4,SASQEYHIVKK [PDZD2_Y557],inactive: 0.59
5,KRISCYEARFQ [PFKFB3_Y194_S197R_YF],inactive: 0.83
6,AASTDYNKRGD [PDHA1_Y242_Y243N],inactive: 0.547
7,GDGRFYMKEAI [PGM1_Y66],inactive: 0.849
8,DPGVSYCTREE [PDHA1_Y301_R302C],inactive: 0.726
9,QKMADYSNKLF [PDPR_Y104_YF],inactive: 0.613
10,SLGSPYGQPPR [PDLIM4_Y137],inactive: 0.619
11,LQTYRYHGHSM [PDHA1_Y289],inactive: 0.87
12,KRISCYEASFQ [PFKFB3_Y194_YF],inactive: 0.967
13,SNKLHYQLEQE [PDPR_Y110_Y109H],inactive: 0.739
14,LQTFHYHGHSM [PDHA1_Y289_R288H_YF],active: 4.21
15,QKMADYSNKLH [PDPR_Y104_Y109H],inactive: 0.622
16,QDEPTYARSSK [PEAK1_Y616_H611Q],inactive: 0.484
17,KLGDVYVNVAF [PGK1_Y161_D164V],inactive: 1.26
18,IVEELYAIPPD [PEAK1_Y797_S792I],inactive: 0.741

# Target: SHP2 C-SH2 domain wild-type
# Test: as above
# Conditions: peptide library: pTyr-Var
row,Binder,enrichment score
1,FRDALYKFIVD [PHEX_Y250_M253I_YF],inactive: 1.86
2,PMQLPHDSTWE [PDGFRB_Y589_Y589H],inactive: 0.983
3,LQTYRYHGLSM [PDHA1_Y289_H292L],inactive: 0.736
4,SASQEYHIVKK [PDZD2_Y557],inactive: 0.454
5,KRISCYEARFQ [PFKFB3_Y194_S197R_YF],inactive: 0.844
6,AASTDYNKRGD [PDHA1_Y242_Y243N],inactive: 0.379
7,GDGRFYMKEAI [PGM1_Y66],inactive: 0.797
8,DPGVSYCTREE [PDHA1_Y301_R302C],inactive: 0.583
9,QKMADYSNKLF [PDPR_Y104_YF],inactive: 0.634
10,SLGSPYGQPPR [PDLIM4_Y137],inactive: 0.478
11,LQTYRYHGHSM [PDHA1_Y289],inactive: 1.14
12,KRISCYEASFQ [PFKFB3_Y194_YF],inactive: 0.922
13,SNKLHYQLEQE [PDPR_Y110_Y109H],inactive: 0.568
14,LQTFHYHGHSM [PDHA1_Y289_R288H_YF],active: 3.5
15,QKMADYSNKLH [PDPR_Y104_Y109H],inactive: 0.657
16,QDEPTYARSSK [PEAK1_Y616_H611Q],inactive: 0.474
17,KLGDVYVNVAF [PGK1_Y161_D164V],inactive: 1.34
18,IVEELYAIPPD [PEAK1_Y797_S792I],inactive: 0.76

# Target: SHP2 N-SH2 domain L43F
# Test: as above
# Conditions: peptide library: pTyr-Var
row,Binder,enrichment score
1,FRDALYKFIVD [PHEX_Y250_M253I_YF],inactive: 2.11
2,PMQLPHDSTWE [PDGFRB_Y589_Y589H],inactive: 1.11
3,LQTYRYHGLSM [PDHA1_Y289_H292L],inactive: 0.64
4,SASQEYHIVKK [PDZD2_Y557],inactive: 0.549
5,KRISCYEARFQ [PFKFB3_Y194_S197R_YF],inactive: 0.75
6,AASTDYNKRGD [PDHA1_Y242_Y243N],inactive: 0.5
7,GDGRFYMKEAI [PGM1_Y66],inactive: 0.807
8,DPGVSYCTREE [PDHA1_Y301_R302C],inactive: 0.685
9,QKMADYSNKLF [PDPR_Y104_YF],inactive: 0.951
10,SLGSPYGQPPR [PDLIM4_Y137],inactive: 0.51
11,LQTYRYHGHSM [PDHA1_Y289],inactive: 1.02
12,KRISCYEASFQ [PFKFB3_Y194_YF],inactive: 0.919
13,SNKLHYQLEQE [PDPR_Y110_Y109H],inactive: 0.58
14,LQTFHYHGHSM [PDHA1_Y289_R288H_YF],active: 3.43
15,QKMADYSNKLH [PDPR_Y104_Y109H],inactive: 0.669
16,QDEPTYARSSK [PEAK1_Y616_H611Q],inactive: 0.514
17,KLGDVYVNVAF [PGK1_Y161_D164V],inactive: 1.35
18,IVEELYAIPPD [PEAK1_Y797_S792I],inactive: 0.741

# Target: SHP2 N-SH2 domain T42A
# Test: as above
# Conditions: peptide library: pTyr-Var
row,Binder,enrichment score
1,FRDALYKFIVD [PHEX_Y250_M253I_YF],inactive: 1.71
2,PMQLPHDSTWE [PDGFRB_Y589_Y589H],inactive: 0.569
3,LQTYRYHGLSM [PDHA1_Y289_H292L],inactive: 0.907
4,SASQEYHIVKK [PDZD2_Y557],inactive: 0.625
5,KRISCYEARFQ [PFKFB3_Y194_S197R_YF],inactive: 0.617
6,AASTDYNKRGD [PDHA1_Y242_Y243N],inactive: 0.58
7,GDGRFYMKEAI [PGM1_Y66],inactive: 0.723
8,DPGVSYCTREE [PDHA1_Y301_R302C],inactive: 0.407
9,QKMADYSNKLF [PDPR_Y104_YF],inactive: 0.908
10,SLGSPYGQPPR [PDLIM4_Y137],inactive: 0.464
11,LQTYRYHGHSM [PDHA1_Y289],inactive: 0.81
12,KRISCYEASFQ [PFKFB3_Y194_YF],inactive: 0.678
13,SNKLHYQLEQE [PDPR_Y110_Y109H],inactive: 0.519
14,LQTFHYHGHSM [PDHA1_Y289_R288H_YF],inactive: 3.15
15,QKMADYSNKLH [PDPR_Y104_Y109H],inactive: 0.612
16,QDEPTYARSSK [PEAK1_Y616_H611Q],inactive: 0.302
17,KLGDVYVNVAF [PGK1_Y161_D164V],inactive: 1.46
18,IVEELYAIPPD [PEAK1_Y797_S792I],inactive: 0.658

# Target: SHP2 N-SH2 domain T52S
# Test: as above
# Conditions: peptide library: pTyr-Var
row,Binder,enrichment score
1,FRDALYKFIVD [PHEX_Y250_M253I_YF],inactive: 2.17
2,PMQLPHDSTWE [PDGFRB_Y589_Y589H],inactive: 0.893
3,LQTYRYHGLSM [PDHA1_Y289_H292L],inactive: 1.02
4,SASQEYHIVKK [PDZD2_Y557],inactive: 0.7
5,KRISCYEARFQ [PFKFB3_Y194_S197R_YF],inactive: 0.659
6,AASTDYNKRGD [PDHA1_Y242_Y243N],inactive: 0.457
7,GDGRFYMKEAI [PGM1_Y66],inactive: 0.684
8,DPGVSYCTREE [PDHA1_Y301_R302C],inactive: 0.45
9,QKMADYSNKLF [PDPR_Y104_YF],inactive: 0.641
10,SLGSPYGQPPR [PDLIM4_Y137],inactive: 0.498
11,LQTYRYHGHSM [PDHA1_Y289],inactive: 0.69
12,KRISCYEASFQ [PFKFB3_Y194_YF],inactive: 0.564
13,SNKLHYQLEQE [PDPR_Y110_Y109H],inactive: 0.679
14,LQTFHYHGHSM [PDHA1_Y289_R288H_YF],active: 3.83
15,QKMADYSNKLH [PDPR_Y104_Y109H],inactive: 0.613
16,QDEPTYARSSK [PEAK1_Y616_H611Q],inactive: 0.614
17,KLGDVYVNVAF [PGK1_Y161_D164V],inactive: 1.22
18,IVEELYAIPPD [PEAK1_Y797_S792I],inactive: 0.979

# Target: SHP2 N-SH2 domain wild-type
# Test: as above
# Conditions: peptide library: pTyr-Var
row,Binder,enrichment score
1,FRDALYKFIVD [PHEX_Y250_M253I_YF],inactive: 2.14
2,PMQLPHDSTWE [PDGFRB_Y589_Y589H],inactive: 1.38
3,LQTYRYHGLSM [PDHA1_Y289_H292L],inactive: 0.874
4,SASQEYHIVKK [PDZD2_Y557],inactive: 0.652
5,KRISCYEARFQ [PFKFB3_Y194_S197R_YF],inactive: 0.827
6,AASTDYNKRGD [PDHA1_Y242_Y243N],inactive: 0.557
7,GDGRFYMKEAI [PGM1_Y66],inactive: 0.926
8,DPGVSYCTREE [PDHA1_Y301_R302C],inactive: 0.683
9,QKMADYSNKLF [PDPR_Y104_YF],inactive: 0.578
10,SLGSPYGQPPR [PDLIM4_Y137],inactive: 0.636
11,LQTYRYHGHSM [PDHA1_Y289],inactive: 1.19
12,KRISCYEASFQ [PFKFB3_Y194_YF],inactive: 1
13,SNKLHYQLEQE [PDPR_Y110_Y109H],inactive: 0.592
14,LQTFHYHGHSM [PDHA1_Y289_R288H_YF],active: 3.39
15,QKMADYSNKLH [PDPR_Y104_Y109H],inactive: 0.761
16,QDEPTYARSSK [PEAK1_Y616_H611Q],inactive: 0.441
17,KLGDVYVNVAF [PGK1_Y161_D164V],inactive: 1.54
18,IVEELYAIPPD [PEAK1_Y797_S792I],inactive: 0.931
